The values that follow come from the antibiotic and cytotoxicity screens of Wong et al. (2023).

Some of the results follow.

One assay deals with HSkMC. The experiment in a line: cytotoxicity call (relative viability < 0.9). Particulars: 10 µM.
The subject of another assay is HepG2. The experiment in a line: cytotoxicity call (relative viability < 0.9). Particulars: 10 µM.
The next assay has as its system S. aureus RN4220. The experiment in a line: growth inhibition call (relative growth <= 0.2). Particulars: 50 µM.

In the case of `O=S(=O)(Cc1ccccc1)Nn1cnnc1`, the cytotoxicity call with HSkMC and with HepG2 was “inactive” throughout. Also, the growth inhibition call in the assay on S. aureus RN4220 is “inactive”.
With `Fc1ccc(-n2cccc2)c(F)c1`, the cytotoxicity call in the assay on HSkMC and with HepG2 was “inactive” in each case. For the same molecule, the growth inhibition call in the assay with S. aureus RN4220 is “inactive”.
In the case of `C[C@@H]1CN([C@H](C)CO)C(=O)Cc2cc(NC(=O)c3ccncc3)ccc2O[C@H]1CN(C)C(=O)Nc1ccc2c(c1)OCO2`, the cytotoxicity call in the assay on HSkMC and in the assay with HepG2 was “inactive” each time. The growth inhibition call with S. aureus RN4220 was “inactive”.
For the molecule `CC(C)NC(=O)Nc1ccc2c(c1)C(=O)N([C@@H](C)CO)C[C@H](C)[C@@H](CN(C)Cc1ccc(Cl)c(Cl)c1)OCCCC[C@@H](C)O2`, the cytotoxicity call in the assay on HSkMC and in the assay with HepG2 was “inactive” in each case. The growth inhibition call in the assay with S. aureus RN4220 was “inactive”.
As to `Cc1noc(C)c1CO`, the cytotoxicity call in the assay with HSkMC and with HepG2 was “inactive” in each case. In addition, in the assay on S. aureus RN4220, the growth inhibition call was “inactive”.
For the molecule `O=C(C[C@@H]1C[C@H]2c3cc(NC(=O)C4CCOCC4)ccc3O[C@H]2[C@@H](CO)O1)NCc1cc(F)ccc1F`, the cytotoxicity call with HSkMC and in the assay on HepG2 was “inactive” each time. The growth inhibition call in the assay with S. aureus RN4220 is “inactive”.
Turning to `Cc1ccccc1-c1ccc2c(c1)O[C@@H](CN(C)C(=O)Nc1ccc(C(F)(F)F)cc1)[C@H](C)CN([C@@H](C)CO)S2(=O)=O`, the cytotoxicity call in the assay on HSkMC and with HepG2 was “inactive” throughout. Besides, in the assay with S. aureus RN4220, the growth inhibition call was “inactive”.
Consider `Cc1ccc(S(=O)(=O)Nc2ccc3c(c2)C(=O)N([C@H](C)CO)C[C@H](C)[C@@H](CN(C)C(=O)Nc2cccc4ccccc24)OCCCC[C@H](C)O3)cc1`, for which the cytotoxicity call with HSkMC and in the assay on HepG2 was “inactive” throughout. In addition, the growth inhibition call with S. aureus RN4220 was “inactive”.
Take `CC(C)=CCc1c2c(c3occ(-c4ccc(O)c(O)c4)c(=O)c3c1O)C=CC(C)(C)O2`: the cytotoxicity call with HSkMC and in the assay on HepG2 was “active” in each case. Moreover, the growth inhibition call in the assay on S. aureus RN4220 was “inactive”.
With `COc1ccc(S(=O)(=O)Nc2ccc3c(c2)C(=O)N([C@H](C)CO)C[C@@H](C)[C@@H](CN(C)Cc2ccc(C(F)(F)F)cc2)OCCCC[C@@H](C)O3)cc1`, the cytotoxicity call in the assay on HSkMC (human skeletal muscle cells) and in the assay with HepG2 was “active” each time. Moreover, in the assay with S. aureus RN4220, the growth inhibition call is “inactive”.
